Measurements: PubChem BioAssay AID1745853 (National Center for Advancing Translational Sciences (NCATS), 2022)
Values joined by “and” are separate entries in the source; they are usually repeats but may differ in a detail not shown here. Identical values can stand only once. Some of the results follow. Further columns of the screen follow, without active or inactive calls.

Key:
Assay in all cases: Primary Screen for Target Class Profiling of Small Molecule Inhibitors of Methyltransferases
[1] = target: Glycine N-methyltransferase (Homo sapiens) (UniProt Q14749); conditions: purified enzyme, MTase-Glo SAH luminescence; measured here: GNMT inhibition; at 40 µM; stronger effect = lower value
How it was run: (§1)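 Each enzyme was reacted with SAM and its substrate, with compounds tested once at 40 uM; SAH formed was read by MTase-Glo luminescence.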

[2] = target: Guanidinoacetate N-methyltransferase (Homo sapiens) (UniProt Q14353); conditions: purified enzyme, MTase-Glo SAH luminescence; measured here: GAMT inhibition; at 40 µM; stronger effect = lower value
How it was run: as §1

[3] = target: Histamine N-methyltransferase (Homo sapiens) (UniProt P50135); conditions: purified enzyme, MTase-Glo SAH luminescence; measured here: HNMT inhibition; at 40 µM; stronger effect = lower value
How it was run: as §1

[4] = target: Nicotinamide N-methyltransferase (Homo sapiens) (UniProt P40261); conditions: purified enzyme, MTase-Glo SAH luminescence; measured here: NNMT inhibition; at 40 µM; stronger effect = lower value
How it was run: as §1

[5] = target: Phenylethanolamine N-methyltransferase (Homo sapiens) (UniProt P11086); conditions: purified enzyme, MTase-Glo SAH luminescence; measured here: PNMT inhibition; at 40 µM; stronger effect = lower value
How it was run: as §1
% is scaled to controls: 0 for no effect and ±100 for the full control effect.

Compound | activity change, negative = inhibition [1] | activity change, negative = inhibition [2] | activity change, negative = inhibition [3] | activity change, negative = inhibition [4] | activity change, negative = inhibition [5]
CC(C)(C)CC(=O)N[C@H]1CO[C@H]2[C@@H]1OC[C@H]2OCC(N)=O | 0.737% | -2.15% | 3.02% | -1.31% | 4.67%
CCN(CC)CCCCCCCCOC(=O)c1cc(OC)c(OC)c(OC)c1 | -1.79% | 8.6% | -37.1% | -8.39% | -3.52%
Cc1ccc(CNC(=O)Cn2nc3n(CCC(C)C)c(=O)c4ccc(C(=O)NC(C)C)cc4n3c2=O)cc1 | 5.35% | 0% | 3.96% | 7.39% | 3.91%
Cc1cn2nnc(C(=O)NC3CCC(C)CC3)c2c(=O)[nH]1 (stereo not given) | -8.24% | -9.87% | -13.9% | -18% | -8.88%
COc1ccc2cc3n(c2c1)CC(C)(C(=O)NC1CCCC1)N(c1ccc(C)cc1)C3=O (stereo not given) | 0.415% | 4.28% | 5.81% | 3.58% | -1.72%
Cc1ccc(CCNC(=O)c2cc3n(n2)CC(C)(C(=O)NC2CCCCCC2)N(C)C3=O)cc1 (stereo not given) | -0.571% | 4.03% | -1.77% | 3.24% | 2%
c1ccc(-c2ccc(CNc3nc(-c4ccccn4)nnc3-c3ccccc3)cc2)cc1 | 1.28% | 0.939% | 3.07% | -20.6% | -6.85%
CCCN1CCC2(CCN([S+](=O)([O-])c3cccs3)CC2)Oc2ccccc21 | -7.64% | -6.52% | -8.46% | -18.6% | -10.4%
COc1ccc2c(c1)CN(C(=O)CCN1CCC(Cc3ccccc3)CC1)CCS2 | -3.93% | 2.94% | -9.73% | -21.7% | -3.8%
CCC(C)NC(=O)c1ccc2c(=O)n(CC(C)C)c3nn(CC(=O)Nc4ccc(C)cc4C)c(=O)n3c2c1 (stereo not given) | 7.41% | 0.081% | 14% | 8.15% | 7.02%
C[C@]1(CO)C2CC[C@H]3OC(=O)C[C@H]3[C@]2(C)CC[C@H]1OC(=O)Nc1ccccc1 (stereo not given in full) | -4.96% | -1.51% | 0.395% | 0.974% | 0.11%
Cn1cnc(C(=O)N2CC(F)(F)C[C@H]2c2nc(C3CC3)no2)c1 | -3.83% | 0.271% | -2.21% | -9.52% | -13.4%
COC(=O)c1cc2n(n1)CC(C)(C(=O)NC1CCCC1)N(c1ccc(C)c(C)c1)C2=O (stereo not given) | -0.159% | 8.82% | 6.71% | -2.79% | -0.158%
Cc1cc2[nH]c(=O)[nH]c2cc1S(=O)(=O)NCc1ccccc1 | -3.96% | 4.49% | 1.5% | -1.91% | -6.44%
CC1CCC2(NC1)OC1C(=O)C3C4CCC5CC(O[C@@H]6O[C@H](CO)[C@@H](O)[C@H](O)[C@H]6O[C@@H]6O[C@@H](C)[C@H](O)[C@@H](O)[C@H]6O)CCC5(C)C4CCC3(C)C1C2C (stereo not given in full) | 0% | -10.9% | -3.94% | -21.8% | -1.95%
CCCN(CC1CCOC1)C(=O)Nc1ccc(Cl)cc1 (stereo not given) | -0.118% | 2.37% | 0.996% | -2.73% | -1.3%
CNC(=O)c1cc(-c2cnc(OC)nc2)cc2c1OCCN2Cc1cccnc1 | -12.6% | -13.3% | -10.4% | -15.7% | -4.55%
C=CC(=O)N1CCN(C(=O)CNc2cc(-c3ccccc3Cl)c(Cl)cc2OC)CC1 | -0.654% | 3.98% | 0.233% | -13.9% | 2.5%
CC(C)c1c(NC(=O)Nc2ccc(Cl)cc2)c(=O)n(-c2ccccc2)n1C | -0.456% | -5.86% | 0.823% | -19% | -4.24%
CN1C(=O)c2cc(C(=O)NCc3ccc4c(c3)OCO4)nn2CC1(C)C(=O)NC1CCCC1 (stereo not given) | 3.65% | 0% | 1.41% | 3.85% | 0.104%
COCCNC(=O)CCc1nnc2n(Cc3ccccc3Cl)c(=O)c3ccccc3n12 | -8.28% | 2.93% | 0.254% | 2.3% | -0.09%
CCOc1ccc(CN2C(=O)c3ccc(-c4ccco4)n3CC2(C)C(=O)NC2CCC(C)CC2)cc1 (stereo not given) | -5.87% | 0% | 2.25% | -12.6% | -0.219%
COCCCNC(=O)C(C)(C)Oc1nn(Cc2cccnc2)c2ccc(COC)cc12 | -0.31% | -0.433% | 2.3% | 0.758% | 2.31%
CC1c2cccn2CCN1C(=O)Nc1cccc(Cl)c1 (stereo not given) | -9.67% | 2.39% | -7.88% | -17.5% | -8.65%
COCCn1c(C(=O)OC)c(NC(=O)CC(C)C)c2cc(NC(C)CCn3cccn3)cnc21 (stereo not given) | -1.39% | -2.58% | -0.691% | -4.93% | -2.02%
CCCn1c(=O)c2cc(F)ccc2n2c(SCc3ccc(C)cc3)nnc12 | -4.76% | 0% | 6.03% | -6.86% | 4.3%
CCCn1c(=O)c2ccc(C(=O)NCC(C)C)cc2n2c(=O)n(CC(=O)NC(C)(C)C)nc12 | 0.298% | 3.58% | -1.03% | 0.829% | 1.4%
O=C(c1cccs1)N1CCC(N(C(=O)NCCc2ccccc2)C2CCOCC2)CC1 | -1.83% | -1.14% | -10.2% | -5.9% | -3.69%
CCCCN(CC)c1nc(C)nc2c1c(C)cn2-c1c(C)cc(C)cc1C | 3.13% and -1.45% | 12.2% and -9.4% | 10.9% and 13% | -3.9% and -21.6% | 1.78% and -4.5%
CC(=O)N1CCC(N2C[C@@H]3C[C@H](C2)c2ccc(-c4ccccc4CN(C)C)c(=O)n2C3)CC1 | -2.86% | -5.65% | -22.3% | -5.88% | -1.93%
